# Over roughly 33,000 sequences, “E-score (-0.5 to 0.5)” has its median near -0.017; the highest 2% begin near 0.3. This is one part of the list.
# Target: T1, Sut1 (UniProt P53032)
# T1 sequence: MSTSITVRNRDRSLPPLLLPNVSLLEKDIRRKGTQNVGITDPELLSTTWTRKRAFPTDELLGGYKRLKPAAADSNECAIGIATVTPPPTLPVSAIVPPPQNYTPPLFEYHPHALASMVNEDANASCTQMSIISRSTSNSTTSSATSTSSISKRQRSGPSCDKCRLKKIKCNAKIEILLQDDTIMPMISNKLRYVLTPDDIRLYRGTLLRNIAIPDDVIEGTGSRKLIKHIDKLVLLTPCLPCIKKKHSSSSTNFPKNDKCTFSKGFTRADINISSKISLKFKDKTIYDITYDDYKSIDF
# Assay: PBM E-score (8-mer binding enrichment) (E-score (-0.5 to 0.5)); higher = stronger / more preferred TF binding; most listed sequences are background and not binding sites
# Conditions: protein concentration: 200 nM; construct: GST-full length
# Procedure, shortened: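 Each ungapped eight-base word and its reverse complement, pooled, received an E-score from the Universal PBM Analysis Suite. Underlying scans, normalised with masliner, recorded fluorescent anti-GST bound to GST-tagged yeast transcription factors. These were applied at about 100-200 nM to universal all-10-mer Agilent arrays double-stranded by primer extension.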
row,Sequence,PBM E-score
1,AGTGACAG,0.0779
2,ATACCCCG,0.182
3,AAGGGCAA,0.0159
4,CATTCAGC,-0.0282
5,GTCGCGCA,0.0446
6,CTACCCAA,-0.0324
7,CATGTCCA,0.0978
8,CTACAAAG,0.0387
9,CAGCTATG,-0.0806
10,CATGGACA,-0.248
11,GCGTGGCA,-0.0303
12,AACAGGCG,-0.309
13,CAGTGTTA,0.0938
14,ATAATGTA,0.21
15,CAGTCATA,-0.0857
16,TAGGGCAA,-0.143
17,GATCGACC,-0.00202
18,ACCCGACC,-0.117
19,CCGCTTGA,-0.162
20,AGCGATAT,0.107
21,GCCCTCCC,-0.116
22,CCAATTGA,-0.0324
23,CAAAATAC,0.243
24,GTTATTCA,0.243
25,ATGCACTA,0.0604

row,Sequence,PBM E-score
1,TAAGTGAA,0.242
2,GGCAAGAC,-0.159
3,CGCCACCC,-0.312
4,GACCCAAA,0.0932
5,ATCACCTG,-0.277
6,ACTCTGCA,0.00784
7,CGTACAGC,-0.101
8,CAGATCGG,0.0645
9,GCGAGCCA,-0.192
10,CCTAGATC,-0.213
11,GCTAAAGC,-0.0213
12,ATTATTGG,0.187
13,ATGGACAT,0.0377
14,CCTCTTTA,-0.024
15,GTAGTGTA,-0.00167
16,ACCATTTC,0.1
17,CCCGTAAG,-0.0501
18,AACCCATC,-0.178
19,ACATACGC,-0.166
20,ATGATACA,0.21
21,GGCGTAAC,-0.216
22,AAATACTT,0.246
23,ACTGAATA,0.116
24,AACCCGCT,-0.24
25,CTTAGGTA,-0.0114

row,Sequence,PBM E-score
1,CGAGGTAA,-0.0696
2,TCCGGCAA,0.33
3,AGAGACCA,-0.0757
4,AACGACTA,0.138
5,AATAATGG,0.201
6,TAACTAGA,0.234
7,TGTAAGAA,0.287
8,CAATCACG,0.0021
9,ATAAACAG,0.192
10,GGTAGATA,0.205
11,CGGTTATC,0.137
12,GCTACAGC,-0.15
13,CACACAAC,-0.0815
14,ACTGCCGA,0.052
15,AAACAGTT,0.152
16,GATTGGCC,-0.084
17,GCCCCCCA,-0.424
18,ATGCTGCA,-0.256
19,ACTTTTCT,0.0248
20,AAGACTCA,-0.283
21,AGTTGCAA,0.123
22,ACGCACTC,0.0935
23,AAACTTGA,0.0615
24,AGTAGCAT,0.0369
25,AACGTGTG,-0.203

row,Sequence,PBM E-score
1,ATGCTAAG,-0.107
2,AAGAGCCT,-0.166
3,CTCCAATC,-0.115
4,ATATTGTC,0.268
5,CAGACACG,-0.214
6,GCCCAACC,-0.15
7,TCTTAAGA,0.148
8,CTCGGAGA,0.419
9,AAATCGGG,0.0832
10,ATATCTAA,0.159
11,ACGCTCAC,0.0304
12,GTCAGATA,-0.106
13,GATACAGC,-0.0182
14,CTGATTGC,0.023
15,GAACTACC,-0.0691
16,ATCATAGC,0.0764
17,AGAACAGC,-0.0298
18,CTAATCTA,0.144
19,CTGCTGAC,-0.157
20,GAACACGC,0.0145
21,GTCCTAGA,-0.141
22,AAACCATG,0.0875
23,TGACGTCA,0.106
24,ACCTTTCA,-0.0164
25,ACGCGGCG,-0.0144

row,Sequence,PBM E-score
1,GACGATCC,0.0475
2,CTATGGGA,-0.139
3,AAGTGCCC,-0.156
4,CGAAGACC,0.0715
5,CTTTGAGC,-0.252
6,ATCCCCGG,0.261
7,CTCTTAAG,0.0727
8,AGTCGCCA,-0.232
9,CATCGTCG,-0.136
10,ACTGCACA,0.00582
11,ATGCCCAT,-0.157
12,GGGAAGAA,-0.0366
13,ATAGGTCG,-0.0667
14,ACACAAGG,0.0527
15,ATCCTGCG,-0.204
16,CATTATTC,0.231
17,TCCTTCCA,-0.243
18,GCACCCGC,-0.108
19,CTCACCGC,-0.0633
20,CGAATCGC,-0.224
21,AGGGTGAT,-0.0489
22,AGACAGCT,-0.176
23,AGTTAATA,0.331
24,CACGAATG,-0.0688
25,CATGACCG,-0.233

row,Sequence,PBM E-score
1,CTTGAGAC,-0.212
2,ATAGGTAA,0.0939
3,AGACCTCT,-0.183
4,ACGCCTTC,0.0371
5,CGCAAAAC,0.111
6,ACTGCACT,0.0273
7,ACCGGCGT,-0.155
8,ATGAATGC,0.0525
9,TCGCTACA,-0.341
10,CTCATAAC,-0.0626
11,ATGACAAT,0.198
12,GAATGCTC,-0.0221
13,CGCCTCTC,-0.324
14,CAGGCTGA,-0.248
15,CCACCAAC,0.0116
16,TAAAGACA,-0.033
17,ATCACAGG,-0.203
18,ACATGAAC,0.0435
19,TGCTCCAA,-0.015
20,ACGAGCTG,-0.00685
21,CCATAGGC,-0.307
22,CTTCTGAC,-0.0968
23,CAAGCGCA,0.0857
24,GTTCTGCA,-0.0955
25,ATACGTAG,-0.0444

row,Sequence,PBM E-score
1,GAGCATAA,0.135
2,AAATTTAA,0.318
3,AATTTCTG,0.187
4,ACTCAGCC,-0.258
5,CCGTGCTA,0.011
6,GTATTCAC,0.253
7,TCTCGTAA,0.0822
8,ATGCTACG,-0.161
9,AAACGTAC,0.0251
10,CCCAGTCG,-0.115
11,CTCTGAAC,-0.234
12,CGGATGAC,0.0105
13,CGCATTGA,-0.0303
14,ATTCAGGG,-0.155
15,CGCTTGAC,-0.0992
16,CGTATTAC,0.0591
17,GAGTTTAA,0.189
18,GACCCTAA,-0.0171
19,ACTTCTTC,0.22
20,GAGCAAGC,-0.194
21,AACTACAG,0.047
22,AAGGTCAC,-0.254

# From the supplement of paper PMC3334620
